Reference: a compilation of properties of binary mixtures (doi:10.1590/0104-6632.20180352s20160280)
The densities may have been worked out from excess volumes.

Experiment: xn = mol fraction of the nth substance listed
Settings: 100 kPa

O=C[O-].OCC[NH2+]CCO + O
mass density [kg/m3]
Settings | x1 = 0.0292 | x1 = 0.075 | x1 = 0.1516 | x1 = 0.2184 | x1 = 0.3185 | x1 = 0.5155 | x1 = 0.5932 | x1 = 0.7378 | x1 = 0.7987 | x1 = 1
293.15 K | 1043 | – | 1133.4 | 1156 | – | 1194.6 | 1196.1 | 1204 | 1205.3 | –
303.15 K | – | 1085.5 | 1128.5 | 1150.8 | 1169.9 | 1189.4 | 1190.7 | 1198.5 | – | 1205.7
313.15 K | 1035.2 | – | 1123.4 | 1145.4 | 1164.6 | 1183.7 | 1185.2 | 1193.2 | 1194.4 | 1200.2
323.15 K | 1030.6 | 1075.4 | 1118.2 | 1139.9 | 1159.4 | 1178.4 | 1179.9 | 1187.7 | 1189 | 1194.7
333.15 K | 1025.6 | 1070.2 | 1112.6 | 1134.4 | – | 1172.9 | 1174.1 | 1182.3 | – | 1189.3
343.15 K | 1020.1 | 1064.7 | 1106.9 | 1128.8 | 1147.7 | 1167.2 | – | 1176.7 | 1178.2 | –
